Variants at the background level are over-represented here.
B1: TPR 5TU (parent)
chain: GGAUCUUCUCGAUCUAACAAAAAAGACAAAUCUGCCACAAAGCUUGAGAGCAUCUUCGGAUGCAGAGGCGGCAGCCUUCGGUGGCGCGAUAGCGCCAACGUUCUCAACUAUGACACGCAAAACGCGUGCUCCGUUGAAUGGAGUUUAUCAUG

Variants of: B1
Assay: polymerase ribozyme fitness, log enrichment relative to wild type (log ratio); higher = more active; in vitro selection for triplet polymerase activity
How it was run: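 Genotype fitness is the logarithm of its enrichment divided by wild-type enrichment, using inverse-variance-weighted averages of replicates. That logarithm is base 2. Enrichment was measured by Illumina sequencing of input and output libraries from one triplicate in vitro selection round, with frozen incubation at −7 °C, on PCR-built, transcribed mutant libraries of each subunit of a heterodimeric triplet polymerase ribozyme, retaining genotypes with ≥10 input reads and ≥1 read per output.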

Going from GGAUCUUCUCGAUCUAACAAAAAAGACAAAUCUGCCACAAAGCUUGAGAGCAUCUUCGGAUGCAGAGGCGGCAGCCUUCGGUGGCGCGAUAGCGCCUACGUUCUCAACUAUGACACGCAAAACGCGUGCUCCGUUGAAUGCAGUUGAUCAUG to GGAUCUUCUCGAUCUAACAAAAAAGACAAAUCUGCCACAAAGCUUGAGAGCAUCUUCGGAUGCAGAGGCGGCAGCCUUCGGUGGCGCGAUAGCGCCAGCGUUCUCAACUAUGACACGCAAGACGCGUGCUCCGUUGAAUGGAGUUUAUCAUG, the “polymerase ribozyme fitness (log ratio)” value rises from -2.08 to -1.63.

Compared with GGAUCUUCUCGAUCUAACAAAAAAGACAAAUCUGCCACAAAGCUUGAGAGCAUCUUCGGAUGCAGAGGCGGCAGCCUUCGGUGGCGCGAUAGCGCCAUCGUUCUCAACUAUGACUCGCAAGACGCGGGCUCCGUUGAAUGGAGUUUAUCAUG, GGAUCUUCUCGAUCUAACAAAAAAGACAAAUCUGCCACAAAGCUUGAGAGCAUCUUCGGAUGCAGAGGCGGCAGCCUUCGGUGGCGCGAUAGCGCCAUCGUUCUCAACUAUGACACGCAAAACGCGUGCUCCGUUGCAUGGAGUUUAUCAUG is lower in “polymerase ribozyme fitness (log ratio)” value: -3.32 for the first, -4.19 for the second.

Going from GGAUCUUCUCGAUCUAACAAAAAAGACAAAUCUGCCACAAAGCUUGAGAGCAUCUUCGGAUGCAGAGGCGGCAGCCUUCGGUGGCGCGAUAGCGCCAUCGUUCUCAACUAUGACACGCAAAACGCGUGCUCCGUUGAAUGGUGUUUAUCAUG to GGAUCUUCUCGAUCUAACAAAAAAGACAAAUCUGCCACAAAGCUUGAGAGCAUCUUCGGAUGCAGAGGCGGCAGCCUUCGGUGGCGCGAUAGCGCCAUCGUUCAUAACUAUGACACGCAAAACGGGUGCUCCGUUGAAUGGAGUUUAUCAUG, the “polymerase ribozyme fitness (log ratio)” value falls from -2.98 to at most -4.2.

Compared with GGAUCUUCUCGAUCUAACAAAAAAGACAAAUCUGCCACAAAGCUUGAGAGCAUCUUCGGAUGCAGAGGCGGCAGCCUUCGGUGGCGCGAUAGCGCCAAAGUUCUCAACUUUGACACGCAAAACACGUGCUCCGUUGAACGGAGUUUAUCAUG, GGAUCUUCUCGAUCUAACAAAAAAGACAAAUCUGCCACAAAGCUUGAGAGCAUCUUCGGAUGCAGAGGCGGCAGCCUUCGGUGGCGCGAUAGCGCCAAAGUUCUCAACUAUGACUCGCAGAACGCGUGCUCCGUUGAAUGGAGUUUAUCAUG is higher in “polymerase ribozyme fitness (log ratio)” value: at most -4.2 for the first, -2.43 for the second.

Compared with GGAUCUUCUCGAUCUAACAAAAAAGACAAAUCUGCCACAAAGCUUGAGAGCAUCUUCGGAUGCAGAGGCGGCAGCCUUCGGUGGCGCGAUAGCGCCAAAGGUCUCAACUAUGACACGCAAAACGCGUGCUCCGUUGAAUGGAGUUUAUCAUG, GGAUCUUCUCGAUCUAACAAAAAAGACAAAUCUGCCACAAAGCUUGAGAGCAUCUUCGGAUGCAGAGGCGGCAGCCUUCGGUGGCGCGAUAGCGCCAAAGUUCUCAACUAUGACACGCAAAACGCGUGCUCCGUUGAAUGGAGUUUAGCAUG is lower in “polymerase ribozyme fitness (log ratio)” value: -3.16 for the first, at most -4.2 for the second.

Going from GGAUCUUCUCGAUCUAACAAAAAAGACAAAUCUGCCACAAAGCUUGAGAGCAUCUUCGGAUGCAGAGGCGGCAGCCUUCGGUGGCGCGAUAGCGCCAAGGUUCUCAACUAUGACACGCAAAACGCGUGCUGCAUUGAAUGGAGUUUAUCAUG to GGAUCUUCUCGAUCUAACAAAAAAGACAAAUCUGCCACAAAGCUUGAGAGCAUCUUCGGAUGCAGAGGCGGCAGCCUUCGGUGGCGCGAUAGCGCCAAGGUUCUCAACUAUGACACGCAAAACGCGUGCUCCGUUGAAUGGAGUUUAUUAUG, the “polymerase ribozyme fitness (log ratio)” value rises from at most -4.2 to -1.74.

First: GGAUCUUCUCGAUCUAACAAAAAAGACAAAUCUGCCACAAAGCUUGAGAGCAUCUUCGGAUGCAGAGGCGGCAGCCUUCGGUGGCGCGAUAGCGCCAAGGUUCUCAACUAUGACACCCAAAGCGCGUGCUCCGUUGAAUGGAGUUUAUCAUG
Second: GGAUCUUCUCGAUCUAACAAAAAAGACAAAUCUGCCACAAAGCUUGAGAGCAUCUUCGGAUGCAGAGGCGGCAGCCUUCGGUGGCGCGAUAGCGCCAAGGUUCUCAACUAUGACACGCAAAACACGUGCUCCGUUGAAUGUAGUUUAUCAUG
The “polymerase ribozyme fitness (log ratio)” value of the first is lower: -1.51 for the first, -0.199 for the second.

GGAUCUUCUCGAUCUAACAAAAAAGACAAAUCUGCCACAAAGCUUGAGAGCAUCUUCGGAUGCAGAGGCGGCAGCCUUCGGUGGCGCGAUAGCGCCAAUGUUCUCAACUAUGACACGCAAAACGCGUGCUCCGUUGAAUGGAGUUUAUCCUG and GGAUCUUCUCGAUCUAACAAAAAAGACAAAUCUGCCACAAAGCUUGAGAGCAUCUUCGGAUGCAGAGGCGGCAGCCUUCGGUGGCGCGAUAGCGCCAAUGUUAUCAACUAUGACACGCAAAACGCGUACUCCGUUUAAUGGAGUUUAGCAUG cannot be ordered by “polymerase ribozyme fitness (log ratio)” value: at most -4.2 for the first, at most -4.2 for the second.

Going from GGAUCUUCUCGAUCUAACAAAAAAGACAAAUCUGCCACAAAGCUUGAGAGCAUCUUCGGAUGCAGAGGCGGCAGCCUUCGGUGGCGCGAUAGCGCCAAUCUUCUCAACUAUGACACGCAAAACGCGUGCUCCGUUGAACGGAGUUUAUCAUG to GGAUCUUCUCGAUCUAACAAAAAAGACAAAUCUGCCACAAAGCUUGAGAGCAUCUUCGGAUGCAGAGGCGGCAGCCUUCGGUGGCGCGAUAGCGCCAAUGUUCUCAACUAUGACACGCAAAACGCGUGCUCCGUUUAAUGGAGUUUAUCAUG, the “polymerase ribozyme fitness (log ratio)” value rises from at most -4.2 to -2.25.

GGAUCUUCUCGAUCUAACAAAAAAGACAAAUCUGCCACAAAGCUUGAGAGCAUCUUCGGAUGCAGAGGCGGCAGCCUUCGGUGGCGCGAUAGCGCCAACAUGCUCAACUAUGACACGCAAAACGCGUGCUCCGUUGAAUGGAGUUUAUCAUG and GGAUCUUCUCGAUCUAACAAAAAAGACAAAUCUGCCACAAAGCUUGAGAGCAUCUUCGGAUGCAGAGGCGGCAGCCUUCGGUGGCGCGAUAGCGCCAACCUUCUCAACUCUGACACGCAAAACGCGUGCUCCGUUGAAUGGAGUUUAUCCUG cannot be ordered by “polymerase ribozyme fitness (log ratio)” value: at most -4.2 for the first, at most -4.2 for the second.

GGAUCUUCUCGAUCUAACAAAAAAGACAAAUCUGCCACAAAGCUUGAGAGCAUCUUCGGAUGCAGAGGCGGCAGCCUUCGGUGGCGCGAUAGCGCCAACCUUCUCAACUAUGACACGCAAAACGCGUGCUCCGUUUAAUGGAGUUGAUCAUG and GGAUCUUCUCGAUCUAACAAAAAAGACAAAUCUGCCACAAAGCUUGAGAGCAUCUUCGGAUGCAGAGGCGGCAGCCUUCGGUGGCGCGAUAGCGCCAACUACCUCAACUAUGACACGCAAAACGCGUGCUCCGUUGAAUGUGGUUUAUCAUG cannot be ordered by “polymerase ribozyme fitness (log ratio)” value: at most -4.2 for the first, at most -4.2 for the second.

First: GGAUCUUCUCGAUCUAACAAAAAAGACAAAUCUGCCACAAAGCUUGAGAGCAUCUUCGGAUGCAGAGGCGGCAGCCUUCGGUGGCGCGAUAGCGCCAACGAUCUCAACGAUGACACGUAAAACGGGUGCUCCGUUGAGUGAAGUUUAUCAUG
Second: GGAUCUUCUCGAUCUAACAAAAAAGACAAAUCUGCCACAAAGCUUGAGAGCAUCUUCGGAUGCAGAGGCGGCAGCCUUCGGUGGCGCGAUAGCGCCAACGCUCUCAACUAUGACACGCAAAACGCGUGCUCCGUUGAAUGGAGUUUAUCGUG
The “polymerase ribozyme fitness (log ratio)” value of the first is lower: at most -4.2 for the first, -1.59 for the second.

First: GGAUCUUCUCGAUCUAACAAAAAAGACAAAUCUGCCACAAAGCUUGAGAGCAUCUUCGGAUGCAGAGGCGGCAGCCUUCGGUGGCGCGAUAGCGCCAACGCUCUUAACUAUGACACGCAAAACGCGUGCUCCGUUUAAUCGAGUUUAUCAUA
Second: GGAUCUUCUCGAUCUAACAAAAAAGACAAAUCUGCCACAAAGCUUGAGAGCAUCUUCGGAUGCAGAGGCGGCAGCCUUCGGUGGCGCGAUAGCGCCAACGUCCUCAACUAUGACACGCAUAACGCGUGCUCCGUUGAAUCGAGUUUAUCAUG
The “polymerase ribozyme fitness (log ratio)” value of the first is lower: at most -4.2 for the first, -3.56 for the second.

Compared with GGAUCUUCUCGAUCUAACAAAAAAGACAAAUCUGCCACAAAGCUUGAGAGCAUCUUCGGAUGCAGAGGCGGCAGCCUUCGGUGGCGCGAUAGCGCCAACGUCCUCAACUAUGACACGCAAAACGCGUGCUCCGUUGAAUGGAGUUUACCAUG, GGAUCUUCUCGAUCUAACAAAAAAGACAAAUCUGCCACAAAGCUUGAGAGCAUCUUCGGAUGCAGAGGCGGCAGCCUUCGGUGGCGCGAUAGCGCCAACGUGCUCAACUAUGACACGCAAAACGCGUGAUCCGUUGAAUGGAGUUUAUCAUG is lower in “polymerase ribozyme fitness (log ratio)” value: -3.19 for the first, at most -4.2 for the second.

First: GGAUCUUCUCGAUCUAACAAAAAAGACAAAUCUGCCACAAAGCUUGAGAGCAUCUUCGGAUGCAGAGGCGGCAGCCUUCGGUGGCGCGAUAGCGCCAACGUGCUCAACUAUGACACGCAAAACCCGUGCUCCAUUGGAUGGAUUUUAUCAUG
Second: GGAUCUUCUCGAUCUAACAAAAAAGACAAAUCUGCCACAAAGCUUGAGAGCAUCUUCGGAUGCAGAGGCGGCAGCCUUCGGUGGCGCGAUAGCGCCAACGUUAUCAACUAUGACACGCAAAACGCGUGCUCCGUUGAAUGGGGUUUAUCAUG
The “polymerase ribozyme fitness (log ratio)” value of the first is lower: at most -4.2 for the first, -2.71 for the second.

Compared with GGAUCUUCUCGAUCUAACAAAAAAGACAAAUCUGCCACAAAGCUUGAGAGCAUCUUCGGAUGCAGAGGCGGCAGCCUUCGGUGGCGCGAUAGCGCCAACGUUAUCAACUAUGACACUCAAAACGCGUGCUCCGUUGAAUGGAGUUUAUCAUG, GGAUCUUCUCGAUCUAACAAAAAAGACAAAUCUGCCACAAAGCUUGAGAGCAUCUUCGGAUGCAGAGGCGGCAGCCUUCGGUGGCGCGAUAGCGCCAACGUUAUCAACUAUGACACGCAAAACGCGUGCUCCGUUGAAUGGAGUUUACCAUG is lower in “polymerase ribozyme fitness (log ratio)” value: -0.489 for the first, at most -4.2 for the second.

GGAUCUUCUCGAUCUAACAAAAAAGACAAAUCUGCCACAAAGCUUGAGAGCAUCUUCGGAUGCAGAGGCGGCAGCCUUCGGUGGCGCGAUAGCGCCAACGUUGUCAACUAUGACACGCAAAACGCGUCCUCCGUUGAAUGGAGUUUAUCAUG and GGAUCUUCUCGAUCUAACAAAAAAGACAAAUCUGCCACAAAGCUUGAGAGCAUCUUCGGAUGCAGAGGCGGCAGCCUUCGGUGGCGCGAUAGCGCCAACGUUGUCAACUACGACACGCAAAACGAGUGCUCCGUUGAAUGGAGUUUAUCAUG cannot be ordered by “polymerase ribozyme fitness (log ratio)” value: at most -4.2 for the first, at most -4.2 for the second.

First: GGAUCUUCUCGAUCUAACAAAAAAGACAAAUCUGCCACAAAGCUUGAGAGCAUCUUCGGAUGCAGAGGCGGCAGCCUUCGGUGGCGCGAUAGCGCCAACGUUCCCAACUAUGACACGCAAAACGCGUGCUCCGUGGAAUGGAGUUUAUCAUG
Second: GGAUCUUCUCGAUCUAACAAAAAAGACAAAUCUGCCACAAAGCUUGAGAGCAUCUUCGGAUGCAGAGGCGGCAGCCUUCGGUGGCGCGAUAGCGCCAACGUUCGCAACUAUGACACGCCAAAUGCGUGCUCCGUUGAAUGGAGUUUAUCAUG
The “polymerase ribozyme fitness (log ratio)” value of the first is lower: -3.31 for the first, 0.501 for the second.

First: GGAUCUUCUCGAUCUAACAAAAAAGACAAAUCUGCCACAAAGCUUGAGAGCAUCUUCGGAUGCAGAGGCGGCAGCCUUCGGUGGCGCGAUAGCGCCAACGUUCGCAACUAUGACACGCAAAACGCGUGCUACCUUGAAUGGAGAUUAUCAUG
Second: GGAUCUUCUCGAUCUAACAAAAAAGACAAAUCUGCCACAAAGCUUGAGAGCAUCUUCGGAUGCAGAGGCGGCAGCCUUCGGUGGCGCGAUAGCGCCAACGUUCGCAACUAUGACACGCAAAACGCAUGCUCCGUUGAAUGGAGUUUAUCAUG
The “polymerase ribozyme fitness (log ratio)” value of the first is lower: at most -4.2 for the first, 0.207 for the second.
